From patent US10532977B2, “Small molecule inhibitors of protein tyrosine phosphatases and uses thereof” (Indiana University Research and Technology Corporation, priority 2015, dated 2020)

Test system: panel of PTPs
Details: for selectivity for SHP2 against all PTPs examined: cefsulodin: with the sole exception of SHP1

Row | SMILES | selectivity for SHP2 against all PTPs examined | also measured
1 | Cc1c(Br)cc(NC(=O)CS(=O)(=O)O)cc1Br |  | activity against mPTPB or a panel of human PTPs below 3 μM: no significant activity
2 | NC(=O)c1cc[n+](CC2=C(C(=O)O)N3C(=O)[C@@H](NC(=O)[C@@H](c4ccccc4)S(=O)(=O)[O-])[C@H]3SC2)cc1 [Cefsulodin] | greater than 10 fold | 
3 | O=C(Nc1ccc(I)cc1)C(=O)Nc1ccc(NC(=O)C(c2ccccc2)S(=O)(=O)O)cc1 (centres unmarked) [Compound 2, 2-((4-(2-((4-iodophenyl)amino)-2-oxoacetamido)phenyl)amino)-2-oxo-1-phenylethanesulfonic acid] | at least 4 fold | 
4 | O=C(Nc1ccc(NC(=O)C(c2ccccc2)S(=O)(=O)O)cc1)C(=O)Nc1cc(-c2ccc(Br)cc2)n[nH]1 (centres unmarked) [Compound 4, 2-((4-(2-((3-(4-bromophenyl)-1H-pyrazol-5-yl)amino)-2-oxoacetamido)phenyl)amino)-2-oxo-1-phenylethanesulfonic acid] | ≥ 8 fold | 
5 | O=C(Nc1nnc(-c2ccccc2)s1)C(c1ccccc1)S(=O)(=O)O (centres unmarked) [Compound L319M73-2] |  | selectivity for Laforin over other PTPs (ratio of IC50): 100 fold
